Assay results from the supplement of paper PMC8728848.
The list shows a part of the results.

Legend:
[1] = target: Neu5Gc(a2-8)Neu5Gc(a2-6)Gal(b1-4)GlcNAc; assay: glycan array binding signal (z-score within array); higher = stronger binding; details: glycan notation: IUPAC condensed, linker removed
How it was run: (§1)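 From the Consortium for Functional Glycomics database, 3228 arrays were curated, keeping only those whose protein sequence was available. Binding is given as a within-array Z-score averaged across arrays sharing a protein sequence and across linkers. Negative Z-scores can be read as non-binding.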

[2] = target: Neu5Gc(b2-6)Gal(b1-4)GlcNAc; assay: as above; details: glycan notation: IUPAC condensed, linker removed
How it was run: as §1

B1: GS7807P-bth-537-23-537 (Bacteroides thetaiotaomicron) (protein)
chain: NYENINSNPYEAPDLSADGYALGSAMNNLAGCVVSPDVNTAQFTDCLLGGPLGGYFADSNAGFTETISNFNPKDDWSRVFLKSDKIIPTLYSNLTQVKLVSQNTNDPVPYAIAQVIKVAAMHRVTDAFGPIPYSQIGANGEIATPYDSQEVTYNTFFDELNAAIATLNENSNEQLVPTADYIYKGDVKKWIRFANSLKLRLAIRIAYANPVKAQQMAEEAVNPANGGVIESNADNATWNYFETSQNPIYVATRYNQVQTSDHGGVPCLTGGDTHAAADIICYMNGYKDNRREKFFTKSEWAGQDYVGMRRGIVIPELKTTGHKYSGVNIAPTSPLYWMNAAEVAFLRAEGQAVFNFSMGGTAESFYNQGIRLSFEQWGADGVEDYLKDDVNKPTAYTDPAGTNTYQNALSNITIKWNDSADKEEKQERIIVQKWIANWQLGNEAWADFRRTGYPKLIPVKENKSGGVVDSEKGARRMPYPLDEFVSNKANVEYAIANYLHGADNMATDVWWASKK
glycan array binding signal (z-score) [1]: -0.365
glycan array binding signal (z-score) [2]: 0.897
